Experimental data from the RNAGym collection of RNA variant scans (doi:10.1073/pnas.2313332121).
Variants at the background level are over-represented here.

B1: TPR 5TU (parent)
chain: GGAUCUUCUCGAUCUAACAAAAAAGACAAAUCUGCCACAAAGCUUGAGAGCAUCUUCGGAUGCAGAGGCGGCAGCCUUCGGUGGCGCGAUAGCGCCAACGUUCUCAACUAUGACACGCAAAACGCGUGCUCCGUUGAAUGGAGUUUAUCAUG

Variants of: B1
Assay: polymerase ribozyme fitness, log enrichment relative to wild type (log ratio); higher = more active; in vitro selection for triplet polymerase activity
Outline: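 Libraries of mutants in each subunit of a heterodimeric triplet polymerase ribozyme were generated by PCR and transcribed. In triplicate, each went through one in vitro selection round: annealing with biotinylated primer, partner subunit and triplets; frozen incubation at −7 °C; gel excision of extended constructs; streptavidin-bead capture; RT-PCR. Fitness, taken from Illumina sequencing of input and output libraries, is the logarithm of a genotype's enrichment over wild-type enrichment, averaged across replicates with inverse-variance weights. The logarithm is base 2, and genotypes needed ≥10 input reads and ≥1 read per output to be kept.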

A21G A47C C51U C87U U90G and A21C A23G A37C C95G cannot be ordered by “polymerase ribozyme fitness (log ratio)” value: no more than -4.2 for the first, no more than -4.2 for the second.

Going from A21C G86A to A21C C32G U56A A91C C95U U104A A110U A138U, the “polymerase ribozyme fitness (log ratio)” value falls from -0.32 to no more than -4.2.

Compared with A21U G68A C79A G92C, A21G U139A is higher in “polymerase ribozyme fitness (log ratio)” value: no more than -4.2 for the first, -3.9 for the second.

First: A21G A138C
Second: A21U A22C G42C C85G U102G
The “polymerase ribozyme fitness (log ratio)” value of the first is higher: -4 for the first, no more than -4.2 for the second.

Going from A20G G80C C103A G143A to A21C U44A C75A C96A, the “polymerase ribozyme fitness (log ratio)” value rises from no more than -4.2 to -3.98.

Compared with A21C C57A G81U C85A U139G, A22C A41U U61A C99U is lower in “polymerase ribozyme fitness (log ratio)” value: -0.214 for the first, no more than -4.2 for the second.

A21C A49C G80C C85A C93A C96U A138U A142U and A20U C43U C69G C85A cannot be ordered by “polymerase ribozyme fitness (log ratio)” value: no more than -4.2 for the first, no more than -4.2 for the second.

A21U G25C G59U G141C A150G and A20U C38U C87U A115U U135G C149A cannot be ordered by “polymerase ribozyme fitness (log ratio)” value: no more than -4.2 for the first, no more than -4.2 for the second.

Compared with A21C C85A U127A, A21U A40G A60G C96G U146G is higher in “polymerase ribozyme fitness (log ratio)” value: no more than -4.2 for the first, -3.99 for the second.

A21U A22U U31A C38U U102G C123G and A22C A37G C76U C85U C116G A122C G143U cannot be ordered by “polymerase ribozyme fitness (log ratio)” value: no more than -4.2 for the first, no more than -4.2 for the second.

A21G A29U C85U G100A U104C G136U and A20U G70A C76A C96U U139G cannot be ordered by “polymerase ribozyme fitness (log ratio)” value: no more than -4.2 for the first, no more than -4.2 for the second.

A21U A28G U44A G88C and A20G G74A G84U G126C cannot be ordered by “polymerase ribozyme fitness (log ratio)” value: no more than -4.2 for the first, no more than -4.2 for the second.

A21C C27G C75G U82A G92C U109C G117U and A21C G83C C87A G94U G100U G141U cannot be ordered by “polymerase ribozyme fitness (log ratio)” value: no more than -4.2 for the first, no more than -4.2 for the second.

First: A21U U61G G80A U101A
Second: A21G C114U
The “polymerase ribozyme fitness (log ratio)” value of the first is lower: -2.86 for the first, -1.69 for the second.

A21C C35A G84A G117A U127G and A20C U56G C57G C96G U139C U151C cannot be ordered by “polymerase ribozyme fitness (log ratio)” value: no more than -4.2 for the first, no more than -4.2 for the second.

A21G A37U G68A C87U A107U U134G and A21U A22U A26U G46A C69G G83C A106C C116A G141C cannot be ordered by “polymerase ribozyme fitness (log ratio)” value: no more than -4.2 for the first, no more than -4.2 for the second.

Compared with A21U C57A A142U, A20G C93A C132G U134G U148G is lower in “polymerase ribozyme fitness (log ratio)” value: -0.38 for the first, no more than -4.2 for the second.

A21C C35U U53A C87G U111G A137U and A20U A23C C35U C75U C103G G136A cannot be ordered by “polymerase ribozyme fitness (log ratio)” value: no more than -4.2 for the first, no more than -4.2 for the second.

First: A21U C36G C51U U55C G92U U148A
Second: A21C U56G A89C C96A C116G A119C
The “polymerase ribozyme fitness (log ratio)” value of the first is lower: no more than -4.2 for the first, -2.02 for the second.

A21U C57G G83A C85U G88U G124U C125U G136A and A21G G50C G84A A89U cannot be ordered by “polymerase ribozyme fitness (log ratio)” value: no more than -4.2 for the first, no more than -4.2 for the second.

A20U U55G C93G G94C A142G and A21G A40C G86U A119G A150C cannot be ordered by “polymerase ribozyme fitness (log ratio)” value: no more than -4.2 for the first, no more than -4.2 for the second.

A20U C32G U56G G81A C93U A107G C131U C132G U135G A147G and A21C U53A U56A C69U A98U G117C C118G U134A cannot be ordered by “polymerase ribozyme fitness (log ratio)” value: no more than -4.2 for the first, no more than -4.2 for the second.

A21U C79U U101G U102G and A20U A26U C36G G50A C95G C123A G143U cannot be ordered by “polymerase ribozyme fitness (log ratio)” value: no more than -4.2 for the first, no more than -4.2 for the second.

A21U C43A U78G G84U C93U C103G A115G and A21G A28G G42U C57U U148C cannot be ordered by “polymerase ribozyme fitness (log ratio)” value: no more than -4.2 for the first, no more than -4.2 for the second.

First: A21C C57G G81A A115C
Second: A20U A49U U61A C69U A89C C93U C108U A113U A147C
The “polymerase ribozyme fitness (log ratio)” value of the first is higher: -1.84 for the first, no more than -4.2 for the second.

A20U A47U C87A and A20G G83C G112A U134C cannot be ordered by “polymerase ribozyme fitness (log ratio)” value: no more than -4.2 for the first, no more than -4.2 for the second.

A21C A24U A30C A49U U55G C99U and A20U U45A C54U G86U C103A G124A A142G cannot be ordered by “polymerase ribozyme fitness (log ratio)” value: no more than -4.2 for the first, no more than -4.2 for the second.

A21U A30U U44A C63U G92U C96A U104G A110C and A21G C27U G65U G83U cannot be ordered by “polymerase ribozyme fitness (log ratio)” value: no more than -4.2 for the first, no more than -4.2 for the second.

A21C C35U C75U G92C C96A C108U C131U A142C and A20G A30U C54U U56A G86A cannot be ordered by “polymerase ribozyme fitness (log ratio)” value: no more than -4.2 for the first, no more than -4.2 for the second.

A20U A30U A37U C51G C93U C95A C96G C116G and A20G G42C G84A C149A cannot be ordered by “polymerase ribozyme fitness (log ratio)” value: no more than -4.2 for the first, no more than -4.2 for the second.

A21U A22U G42A G70C C93U G140C G152U and A21U U78C G86C U148A cannot be ordered by “polymerase ribozyme fitness (log ratio)” value: no more than -4.2 for the first, no more than -4.2 for the second.

A21U A24G U55G G71A G84A C93U U101G and A20U A23U A24U C51U A60G C85G cannot be ordered by “polymerase ribozyme fitness (log ratio)” value: no more than -4.2 for the first, no more than -4.2 for the second.

A20U A21G A37U C43A A52G G70C G86A A97C A98U and A21G C76G A97U cannot be ordered by “polymerase ribozyme fitness (log ratio)” value: no more than -4.2 for the first, no more than -4.2 for the second.

Compared with A20C U56G A60C U90A C95U, A21U A47U C93U is higher in “polymerase ribozyme fitness (log ratio)” value: no more than -4.2 for the first, -0.679 for the second.

A20G A28C A41U C57G A91U and A21U C75A C125A A137C U144G cannot be ordered by “polymerase ribozyme fitness (log ratio)” value: no more than -4.2 for the first, no more than -4.2 for the second.

A21U C72U C79U G94C U146A and A22C A24U G50C G67U U78A C95A A113U cannot be ordered by “polymerase ribozyme fitness (log ratio)” value: no more than -4.2 for the first, no more than -4.2 for the second.

A20U A28U A47G A89U U148A and A21G A23G A30G G68A G71C C76A U77A G92U C93U A97G A150G cannot be ordered by “polymerase ribozyme fitness (log ratio)” value: no more than -4.2 for the first, no more than -4.2 for the second.

A21C A23U A39G U53A C54U and A21C U77G C96G C103G A147U cannot be ordered by “polymerase ribozyme fitness (log ratio)” value: no more than -4.2 for the first, no more than -4.2 for the second.

A20C U90G C99U G136C and A20U A23G G50U G86A A110C C129G G140A cannot be ordered by “polymerase ribozyme fitness (log ratio)” value: no more than -4.2 for the first, no more than -4.2 for the second.

A21G G50A G59A C87A and A21U A40G G70A A91U C93G C125G cannot be ordered by “polymerase ribozyme fitness (log ratio)” value: no more than -4.2 for the first, no more than -4.2 for the second.

Going from A20U A40U U56A C96A G141C to A20U A40C, the “polymerase ribozyme fitness (log ratio)” value rises from -2.73 to -0.959.

For A20U A28U C96U, the “polymerase ribozyme fitness (log ratio)” value was no more than -4.2.
